The list shows a part of the results. These are further read-outs of the screen, such as a control signal, another cell line or another target. No call is given for them. Most of these compounds were active or inconclusive in the main read-out, so they are no random draw.
Test: up-regulation of insulin promoter-GFP reporter – imaging, high-content screening, mouse beta cells (AID 1625);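 also: total cells summed across four imaged fields per well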
Settings: MIN6 insulin promoter-GFP reporter, measured here: cytotoxicity, nuclei count, at 5 µM
Cc1ccc(-c2noc(CCC(=O)NCCN3CCN(Cc4ccccc4)CC3)n2)cc1 showed a cell count of 474 cells. Molecule COc1ccc(-c2cn(-c3ccc(OC)cc3)c3[n+]2-c2ccccc2CC3)cc1 has a cell count of 468 cells. COc1ccc(CCNc2c(C)c(C)nc3ncnn23)cc1 gave a cell count of 342 cells. In the case of C=CCc1cccc(/C=N/NC(=O)C(C)Nc2ccc(C)cc2)c1O (centres undefined), the cell count is reported as 490 cells. COc1ccc(NC(=O)C(C)N2c3cccc4cccc(c34)S2(=O)=O)cc1OC (centres undefined) gave a cell count of 445 cells. Molecule CCCSc1nc2c(c(=O)n(C)c(=O)n2C)n1Cc1ccc(C)cc1 has a cell count of 497 cells. COc1ccccc1[C@@H]1C(c2cccc(Cl)c2)=NN(c2ccc(Br)cc2)[C@H]1C(=O)N1CCOC1=O showed a cell count of 384 cells. CCOC(=O)C1CCN(Cc2ccc(O)c3ncccc23)CC1 gave a cell count of 336 cells. With O=C(Nc1nc2c(F)cc(F)cc2s1)c1ccccn1 the cell count was 419 cells. In the case of COc1ccc(-n2c(-c3ccc(Cl)cc3)c[n+]3c2CCCCC3)cc1, the cell count is reported as 261 cells. For Cc1cccc(OCCNc2nc3c(c(=O)n(C)c(=O)n3C)n2C)c1, the cell count was 1450 cells. Molecule COc1cc([N+](=O)[O-])ccc1NC(=O)CC1SC(=Nc2ccc(F)cc2)N(CCC2=CCCCC2)C1=O (centres undefined) has a cell count of 475 cells. CCCCCc1cc(=O)oc2c(C(CCN3CCCC3)c3cc(OC)c(OC)c(OC)c3)c(OC)cc(OC)c12 (centres undefined) showed a cell count of 155 cells. Cc1ccc(OCC2Cn3c(nc4c3c(=O)[nH]c(=O)n4C)O2)cc1 (centres undefined) gave a cell count of 476 cells. O=C(/C=C/c1cccnc1)/C=C/c1cccnc1 gave a cell count of 273 cells. For Cc1[nH]c2ccccc2c1/C=N/Nc1ccc([N+](=O)[O-])cc1S(=O)(=O)Nc1ccc(Cl)cc1, the cell count was 723 cells. Cc1cccc(NC2=C/C(=N/S(=O)(=O)c3cccs3)c3ccccc3C2=O)c1 showed a cell count of 397 cells. For CCc1c(C(=O)NC2CCCCC2)[nH]c(C)c1C(C)=O, the cell count was 1360 cells. CCOc1ccc(S(=O)(=O)N2c3ccccc3CC2C)cc1 (centres undefined) showed a cell count of 485 cells. Work on CN(C)c1ccc(/C=C/C(=O)c2c(O)c3ccccc3oc2=O)cc1 yielded a cell count of 1090 cells. S=C(Sc1ccc(Cl)cc1)Sc1ccc(Cl)cc1 showed a cell count of 205 cells. With COc1ccc(C2/C=C\CN(S(=O)(=O)c3cccc4cccnc34)CC(=O)N2Cc2ccc(F)cc2)cc1 (centres undefined) the cell count was 997 cells. Molecule CCCCn1c(=N)n(CC(O)COc2cccc(C)c2)c2ccccc21 (centres undefined) has a cell count of 355 cells. C#CC[N+](C)(C)CCCCCCCCCCCC showed a cell count of 425 cells. In the case of Cc1nn(Cc2ccccc2)c(Cl)c1/C=N/NC(=O)c1cccnc1, the cell count is reported as 490 cells. COc1ccc(/C=C2\C(=O)NC(=S)N2C(=O)c2ccc(F)cc2)cc1 gave a cell count of 1450 cells. N=c1c2c(-c3ccccc3)c(-c3ccccc3)n(Cc3ccco3)c2ncn1CCCn1ccnc1 showed a cell count of 349 cells. COc1ccc(/C=C/c2cc(-c3ccc(C)cc3)o[n+]2C)cc1 gave a cell count of 210 cells. Work on COc1ccc(OC)c(C2=NOC(C(=O)NCC3CCCO3)C2)c1 (centres undefined) yielded a cell count of 1240 cells. O=C(Nc1nccs1)c1cccc(N2C(=O)c3cccc4c([N+](=O)[O-])ccc(c34)C2=O)c1 gave a cell count of 440 cells. Work on C[n+]1c2n(c3ccccc31)N=C(c1ccc(-c3ccccc3)cc1)CS2 yielded a cell count of 325 cells. For CN1/C(=C\C=C(/C#N)C(=O)Nc2ccc(Cl)cc2)C(C)(C)c2ccccc21, the cell count was 1280 cells. Molecule O=C(c1cc([N+](=O)[O-])ccc1N1CCCC1)N1CCCC1 has a cell count of 1230 cells. In the case of COc1ccc(/C=N/OCC(=O)NC(c2ccccc2)c2ccccc2)cc1OC, the cell count is reported as 484 cells. Work on CC(C)C(C)(C#N)NC(=O)CSc1nnc(C(F)(F)F)n1C (centres undefined) yielded a cell count of 1210 cells. In the case of Cc1cc(/C=N/n2cnnc2)c(C)n1-c1ccc(OCc2ccc(Cl)cc2)cc1, the cell count is reported as 446 cells. O=C(N/N=C\c1cn(-c2ccccc2)nc1-c1ccccc1)c1ccc(Br)o1 gave a cell count of 1200 cells. Cc1c(C(=O)NCC2COc3ccccc3O2)oc2ccc(S(=O)(=O)N3CC(C)CC(C)C3)cc12 (centres undefined) showed a cell count of 404 cells. Work on CCc1ccc2c(c1)C1(NN=C(c3ccc(C)cc3)S1)C(=O)N2 (centres undefined) yielded a cell count of 447 cells. Clc1ccc(OCCN2CCN(c3ncnc4sccc34)CC2)cc1 showed a cell count of 290 cells. In the case of N#C/C(=C\C1=C(N2CCOCC2)C(=C\c2ccc(Cl)cc2)/CC1)C(=O)Nc1ccccc1F, the cell count is reported as 1280 cells. In the case of COc1ccc(Br)cc1C(C[N+](=O)[O-])c1c(N)n(C)c(=O)n(C)c1=O (centres undefined), the cell count is reported as 303 cells. In the case of Cc1nc2ccc(NS(=O)(=O)c3ccc4c(c3)OCCO4)cc2s1, the cell count is reported as 486 cells. Molecule COc1ccc(S(=O)(=O)Cc2ccc(C(=O)N3CCOCC3)o2)cc1 has a cell count of 403 cells. CCOc1cc(CNCCc2ccc(S(N)(=O)=O)cc2)cc(Cl)c1OCc1ccccc1 showed a cell count of 251 cells. With Cc1cccc(Oc2nccc(C(F)(F)F)c2C(=O)Nc2ccc(F)cc2F)c1 the cell count was 1420 cells. With O=C1/C(=C/c2ccncc2)CCC/C1=C\c1ccncc1 the cell count was 458 cells. For Cc1ccccc1SCc1noc(C(=O)NC(C)C)c1C(=O)O, the cell count was 1370 cells. For CCOc1cc(S(=O)(=O)NCc2ccncc2)ccc1Cl, the cell count was 332 cells. For CN(C)c1ccc(NC2=C(Cl)C(=O)c3ccccc3C2=O)cc1, the cell count was 246 cells. For CC(=O)c1cccc(NS(=O)(=O)c2ccc(N/C=C\C(=O)c3ccc(F)cc3)cc2)c1, the cell count was 437 cells. With O=C(c1cc2sccc2n1Cc1ccc(F)cc1)N1CCN(c2nc3ccccc3s2)CC1 the cell count was 438 cells. With O=C(CSc1nnc(C2CC2)n1-c1ccccc1)NCc1ccco1 the cell count was 338 cells. COc1cccc(C2C3CN(C)CC=C3C(C#N)=C(N)C2(C#N)C#N)c1OC (centres undefined) gave a cell count of 1470 cells. With Cc1csc(NC(=O)c2sc3nc(-c4cccs4)ccc3c2N)n1 the cell count was 1840 cells. N=c1c2c(-c3ccccc3)c(-c3ccccc3)n(Cc3ccco3)c2ncn1CCO showed a cell count of 396 cells. Cc1ccc(Cl)cc1N1CCN(CC(=O)Nc2ccc(CN3CCCCC3)cc2)CC1 gave a cell count of 273 cells. With C=CCn1c(SCc2cccc(F)c2)nc2cc(C(=O)N3CCC(C(N)=O)CC3)ccc2c1=O the cell count was 398 cells. For O=C(O)c1cc(-c2ccncc2)nc2ccc(F)cc12, the cell count was 1300 cells. Molecule CC[n+]1c(/C=C2/C=C(C)CC(C)C2)sc2ccccc21 (centres undefined) has a cell count of 258 cells. With O=c1[nH]c(CN2CCN(Cc3ccc4c(c3)OCO4)CC2)nc2sc3c(c12)CCC3 the cell count was 1190 cells. For O=c1cc(/N=C/c2coc3c(ccc4ccccc43)c2=O)[nH]c(=S)[nH]1, the cell count was 470 cells. For CC(=O)n1cc(N(C(=O)CCl)c2ccccc2)c2ccccc21, the cell count was 309 cells. With COc1ccc(/C=C2\CC/C(=C\c3ccc(OC)cc3OC)C2=O)c(OC)c1 the cell count was 1300 cells. Cc1ccc(N2CCN(CC(=O)Nc3c(C(=O)C4CC4)oc4ccccc34)CC2)cc1 gave a cell count of 318 cells. With Cc1ccc(S(=O)(=O)N2CCCC2C(=O)N(C)Cc2cccs2)cc1 (centres undefined) the cell count was 950 cells. For N#CC(C#N)=C1C=C2C=C(N3CCOCC3)CCC2CC1 (centres undefined), the cell count was 1400 cells. In the case of CC(C(=O)NC1CCCc2ccccc21)N1CCN(Cc2ccc3c(c2)OCO3)CC1 (centres undefined), the cell count is reported as 381 cells. In the case of COc1cc(CN(C)CC(=O)c2[nH]c(C)c(C(C)=O)c2C)ccc1OC(F)F, the cell count is reported as 348 cells. Work on CC(C)(C)NS(=O)(=O)c1ccc(CCC(=O)Nc2cc(Cl)ccc2Oc2ccccc2)cc1 yielded a cell count of 449 cells. N#CC(c1cccc(Cl)c1)c1ccc2c(C(F)(F)F)cc(C(F)(F)F)nc2n1 (centres undefined) gave a cell count of 318 cells. Work on CC1CCCCN1c1ncnc2ccccc12 (centres undefined) yielded a cell count of 495 cells. O=C1Nc2ccc(Br)cc2C12NNc1ccccc1O2 (centres undefined) gave a cell count of 1140 cells. Molecule Cn1c(=O)oc2cc(S(=O)(=O)NCc3ccncc3)ccc21 has a cell count of 496 cells. Work on C=C(CO)C1Cc2cc(C(C)=O)ccc2O1 (centres undefined) yielded a cell count of 165 cells. Cc1ccc(NCCC(=O)c2cccc([N+](=O)[O-])c2)cc1 showed a cell count of 397 cells. With CC[n+]1ccc(/C=C/c2ccc(N(C)C)cc2)c2ccccc21 the cell count was 248 cells. In the case of COc1cccc(C(=O)CN2C(=O)C(C)(C)Oc3ccc(C(=O)N4CCCCCC4)cc32)c1, the cell count is reported as 989 cells. In the case of CCCN1C(=O)/C(=C\C=C2\N(CC)c3ccccc3C2(C)C)SC1=S, the cell count is reported as 1180 cells. Cc1sc2ncnc(NCC(C)(C)N3CCOCC3)c2c1C gave a cell count of 363 cells. COc1ccc(N2CCN(C(=O)CSc3nnc(-c4cccnc4)n3-c3ccccc3)CC2)cc1 gave a cell count of 448 cells. O=C1C(Cl)=C(Nc2ccccc2)C(=O)c2ccccc21 showed a cell count of 199 cells. For COc1ccccc1/C=C/C(=O)/C=C/c1ccccc1O, the cell count was 448 cells. For Clc1ccc2nnnc(-c3ccccc3)c2c1, the cell count was 448 cells. In the case of COc1cc(OC)c(OC)cc1/C=C1\Oc2cc(OS(C)(=O)=O)ccc2C1=O, the cell count is reported as 1120 cells. Work on COc1ccccc1-n1c(-c2ccccc2)c[n+]2c1CCc1ccccc1-2 yielded a cell count of 370 cells. With CC(=O)Nc1nc(-c2ccc(Br)s2)cs1 the cell count was 1070 cells. Molecule COc1ccc(C2C(C(=O)c3ccccc3)=C(C)Nc3nc4ccccc4n32)c(OC)c1 (centres undefined) has a cell count of 1180 cells. In the case of Cc1ccc(-c2c[n+](CC(=O)c3ccc(Br)cc3)c3n2CCCCC3)cc1, the cell count is reported as 287 cells. With CC1CCCN(CCOCCSc2ccccc2)C1 (centres undefined) the cell count was 456 cells. With CCOc1ncccc1C(=O)NCc1ccccc1 the cell count was 446 cells. Cc1ccc(N2C(=O)c3cccc4c(N)ccc(c34)C2=O)c2cccnc12 gave a cell count of 453 cells. Work on CC(=Nc1ccc(C)cc1C)c1sc2ccccc2c1O yielded a cell count of 1600 cells. COc1ccccc1N1CCN(C/C(O)=C(\C#N)c2nc(-c3ccccc3)cs2)CC1 gave a cell count of 1010 cells. CC1(C)CC(=O)c2cc(C(=O)N3CCCC(C)(C)C3)c(=O)n(-c3ccccc3)c2C1 gave a cell count of 419 cells. For CCCCNC(=O)/C(C#N)=c1\s/c(=C\c2ccccc2OC(F)F)c(=O)n1CCCOC, the cell count was 1420 cells. CCOc1ccc2[nH]c(=O)c(CN(CCc3ccccc3)C(=O)N3CCOCC3)cc2c1 showed a cell count of 1340 cells. Work on CC1(C)c2ccccc2N2CC(=O)NC21/C=C/c1ccco1 (centres undefined) yielded a cell count of 1290 cells. CCOC(=O)c1c(-c2ccc(C)o2)csc1NC(=O)CN1CCN(CC)CC1 gave a cell count of 446 cells. Molecule CCN(CC)CCCN(Cc1cc2cc(OC)ccc2[nH]c1=O)C(=O)Nc1ccc(F)cc1 has a cell count of 428 cells. CC1CCCCC1NC(=O)COC(=O)c1c2c(nc3ccccc13)/C(=C/c1ccco1)CC2 (centres undefined) showed a cell count of 1160 cells. Molecule CCCCNc1nc2c(c(=O)n(C)c(=O)n2C)n1Cc1cccc(OC)c1 has a cell count of 387 cells. C=CCSc1nnc(C)c(/C=C/Nc2ccc(Cl)cc2)n1 showed a cell count of 1300 cells. For O=C(/C=C/c1ccc2ccccc2n1)c1cc(Br)ccc1O, the cell count was 1310 cells.

Reference: PubChem BioAssay AID1625 (Sanford-Burnham Center for Chemical Genomics, 2009)
